Values of other authors as cited in CN116283752A (priority 2023, dated 2023).

System: Mycobacterium tuberculosis [结核菌]
Conditions: cited from earlier work

## COc1ccn2nc(C)c(C(=O)NCc3ccc(N4CCC(c5ccc(OC(F)(F)F)cc5)CC4)cc3)c2c1 [TB47, 5-甲氧基-2-甲基-N-(4-(4-(4-(三氟甲氧基)苯基)哌啶-I-取代)苄基)吡唑[1,5-a]吡啶-3-甲酰胺]
  in vivo and in vitro antitubercular activity (in words): 已被证实存在体内外抗结核菌的活性
  synergistic antibacterial effect with known antitubercular drugs (in words): 存在协同抗菌作用
